# According to the supplement of paper PMC6609913:
# Structures can show the parent of a compound that is named as a salt. ± gives the standard deviation of the averaged measurements. Over roughly 1,300 compounds, “normalised cell viability” has its median near 1; the lowest 2% begin near 0.14. The list shows a part of the results.
# Tested on: V-C8 (BRCA2-deficient hamster cells)
# Assay: normalised cell viability (fraction of plate median); higher = more viable cells (less toxic)
# Conditions: 5 µM
# Outline: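 In two screens, library drugs at 5 μM were given for 3 days (screen 1) or 6 days (screen 2) to hamster V-C8 cells without BRCA2 and V-C8 cells with BRCA2 restored, seeded 24 h earlier in 96-well plates. A resazurin assay gave the cell viability readout, expressed as modified robust per cent of sample against the plate median, with triplicate wells averaged.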
Compound,normalised cell viability (treatment time: 3 days),normalised cell viability (treatment time: 6 days)
CCCOc1ccccc1-c1nc2[nH]nnc2c(=O)[nH]1 [Zaprinast],1.15 ± 0.029,0.98 ± 0.025
CC#C[C@]1(O)CC[C@H]2[C@@H]3CCC4=CC(=O)CCC4=C3[C@@H](c3ccc(N(C)C)cc3)C[C@@]21C [Mifepristone],0.999 ± 0.055,0.895 ± 0.037
COc1ccc(Cl)cc1C(=O)NCCc1ccc(S(=O)(=O)NC(=O)NC2CCCCC2)cc1 [Glibenclamide],0.945 ± 0.13,0.891 ± 0.056
CC(C(O)c1ccc(O)cc1)N1CCC(Cc2ccccc2)CC1 (stereo not drawn) [Ifenprodil tartrate],0.902 ± 0.057,1.04 ± 0.074
COC(=O)N/N=C/c1c[n+]([O-])c2ccccc2[n+]1[O-] [Carbadox],0.69 ± 0.18,0.549 ± 0.029
CN(C(=O)CN(CCO)CC(=O)N(C)C(C)(C)Cc1ccccc1)C(C)(C)Cc1ccccc1 [Oxethazaine],0.147 ± 0.0044,0.172 ± 0.0031
Cc1cc(C)nc(NS(=O)(=O)c2ccc(N)cc2)n1 [Sulfamethazine sodium salt],1.08 ± 0.015,1.06 ± 0.27
CC1(C)O[C@@H]2C[C@H]3[C@@H]4C[C@H](F)C5=CC(=O)C=C[C@]5(C)[C@@]4(F)[C@@H](O)C[C@]3(C)[C@]2(C(=O)CO)O1 [Fluocinolone acetonide],0.999 ± 0.018,1.09 ± 0.028
COc1cc(NS(=O)(=O)c2ccc(N)cc2)ncn1 [Sulfamonomethoxine],1.02 ± 0.057,1.05 ± 0.031
CC(C)[C@H](N)C(=O)OCCOCn1cnc2c(=O)nc(N)[nH]c21 [Valacyclovir hydrochloride],1.09 ± 0.069,1.02 ± 0.037
CN1CCN2c3ncccc3Cc3ccccc3C2C1 (stereo not drawn) [Mirtazapine],1.05 ± 0.026,1.06 ± 0.073
CO/N=C(\C(=O)N[C@@H]1C(=O)N2C(C(=O)O)=C(COC(C)=O)CS[C@H]12)c1csc(N)n1 [Cefotaxime sodium salt],1.12 ± 0.052,1.11 ± 0.095
C[C@]12CC[C@@H]3c4ccc(O)cc4C[C@@H](CCCCCCCCC[S+]([O-])CCCC(F)(F)C(F)(F)F)[C@H]3[C@@H]1CC[C@@H]2O (stereo partly drawn) [Fulvestrant],0.606 ± 0.039,0.6924 ± 0.0034
CCCCOc1cc(C(=O)OCCN(CC)CC)ccc1N [Benoxinate hydrochloride],1.19 ± 0.096,1.27 ± 0.042
Clc1ccc2nsnc2c1NC1=NCCN1 [Tizanidine HCl],1.01 ± 0.029,1.02 ± 0.06
CC(C)Oc1ccc2c(=O)c(-c3ccccc3)coc2c1 [Ipriflavone],0.963 ± 0.18,1.05 ± 0.11
Cc1cc2cc3c(C)cc(=O)oc3c(C)c2o1 [Trioxsalen],1.04 ± 0.047,1.07 ± 0.027
CC(=O)Nc1nnc(S(N)(=O)=O)s1 [Acetazolamide],0.983 ± 0.031,1.02 ± 0.024
CNCC(O)c1ccc(O)c(O)c1 (stereo not drawn) [Racepinephrine HCl],1 ± 0.045,1.02 ± 0.064
CCOC1O[C@H]([C@@H](COCc2ccccc2)OCc2ccccc2)[C@H](OCc2ccccc2)[C@H]1O (stereo partly drawn) [Tribenoside],0.953 ± 0.027,0.81 ± 0.061
CC(=O)Nc1c(I)c(C(=O)N[C@H]2C(O)O[C@H](CO)[C@@H](O)[C@@H]2O)c(I)c(N(C)C(C)=O)c1I (stereo partly drawn) [Metrizamide],1.08 ± 0.023,1.124 ± 0.011
CCN(CC)CCNC(=O)c1ccc(N)cc1 [Procainamide hydrochloride],1.14 ± 0.024,1.01 ± 0.048
CN[C@H]1CC[C@@H](c2ccc(Cl)c(Cl)c2)c2ccccc21 [Sertraline],0.594 ± 0.074,0.256 ± 0.022

Compound,normalised cell viability (treatment time: 3 days),normalised cell viability (treatment time: 6 days)
C[C@@H]1CCC[C@H](C)N1NC(=O)c1ccc(Cl)c(S(N)(=O)=O)c1 [Clopamide],1.12 ± 0.061,1.06 ± 0.052
CC[C@H]1OC(=O)[C@H](C)[C@@H](O[C@H]2C[C@@](C)(OC)[C@@H](O)[C@H](C)O2)[C@H](C)[C@@H](O[C@@H]2O[C@H](C)C[C@H](N(C)C)[C@H]2O)[C@](C)(O)C[C@@H](C)CN(C)[C@H](C)[C@@H](O)[C@]1(C)O [Azithromycin],1.002 ± 0.0076,1.03 ± 0.02
Cc1ccc(-c2cc(C(F)(F)F)nn2-c2ccc(S(N)(=O)=O)cc2)cc1 [Celecoxib],0.999 ± 0.033,1.04 ± 0.049
CC(CNC1CCCCC1)OC(=O)c1ccccc1 (stereo not drawn) [Hexylcaine hydrochloride],1.06 ± 0.043,1.01 ± 0.033
Nc1ccc(S(=O)(=O)Nc2nccs2)cc1 [Sulfathiazole],0.983 ± 0.068,1.03 ± 0.05
CC12CC3CC(C)(C1)CC(N)(C3)C2 [Memantine Hydrochloride],0.94 ± 0.05,1.02 ± 0.032
O=C(Nc1ccc([N+](=O)[O-])cc1Cl)c1cc(Cl)ccc1O [Niclosamide],0.124 ± 0.0032,0.0967 ± 0.0062
CCOc1ccc(Cc2nccc3cc(OCC)c(OCC)cc23)cc1OCC [Ethaverine hydrochloride],0.625 ± 0.013,0.534 ± 0.022
C#C[C@]1(O)CC[C@H]2[C@@H]3CCC4=Cc5oncc5C[C@]4(C)[C@H]3CC[C@@]21C [Danazol],1.07 ± 0.035,0.988 ± 0.025
CCC[C@@H]1C[C@@H](C(=O)N[C@@H]([C@H]2O[C@H](SC)[C@H](O)[C@@H](O)[C@H]2O)[C@@H](C)O)N(C)C1 [Lincomycin hydrochloride],1.03 ± 0.016,1.12 ± 0.019
CN1CCCN=C1/C=C/c1cccs1 [Pyrantel tartrate],1.06 ± 0.019,1.02 ± 0.079
CCN(CC)CCN[C@@H](C(=O)OCCC(C)C)c1ccccc1 [Camylofine chlorhydrate],1.07 ± 0.065,0.978 ± 0.027
NNC(=O)c1ccncc1 [Isoniazid],0.974 ± 0.1,1.07 ± 0.074
CC1(C)O[C@@H]2C[C@H]3[C@@H]4C[C@H](F)C5=CC(=O)CC[C@]5(C)[C@H]4[C@@H](O)C[C@]3(C)[C@]2(C(=O)CO)O1 [Flurandrenolide],0.987 ± 0.04,1.06 ± 0.15
O=c1[nH]c(=O)n([C@H]2C[C@H](O)[C@@H](CO)O2)cc1I [Idoxuridine],0.4 ± 0.041,0.363 ± 0.011
Cc1cccc(N(C)C(=S)Oc2ccc3ccccc3c2)c1 [Tolnaftate],1 ± 0.041,0.983 ± 0.02
O=C(O)c1cccnc1 [Niacin],0.94 ± 0.016,1.03 ± 0.02
CCCCc1oc2ccccc2c1C(=O)c1cc(I)c(OCCN(CC)CC)c(I)c1 [Amiodarone hydrochloride],0.6801 ± 0.0018,0.701 ± 0.038
CCN1CCCC1CNC(=O)c1cc(S(N)(=O)=O)ccc1OC (stereo not drawn) [Sulpiride],1.1 ± 0.062,1.05 ± 0.032
COc1ccc(-c2ccc3cc(C(=O)O)ccc3c2)cc1C12CC3CC(CC(C3)C1)C2 [Adapalene],0.294 ± 0.022,0.397 ± 0.041
NCCc1ccc(O)c(O)c1 [Dopamine hydrochloride],1.02 ± 0.047,0.928 ± 0.044
C[C@H](CS)C(=O)N1CCC[C@H]1C(=O)O [Captopril],0.99 ± 0.03,1.02 ± 0.031
CN(Cc1cc(Br)cc(Br)c1N)C1CCCCC1 [Bromhexine hydrochloride],0.977 ± 0.078,1.04 ± 0.024

Compound,normalised cell viability (treatment time: 3 days),normalised cell viability (treatment time: 6 days)
CC1(C)O[C@@H]2C[C@H]3[C@@H]4C[C@H](F)C5=CC(=O)C=C[C@]5(C)[C@H]4[C@@H](O)C[C@]3(C)[C@]2(C(=O)CO)O1 [Flunisolide],0.984 ± 0.067,1.07 ± 0.072
Cc1c(Nc2ncccc2C(=O)O)cccc1C(F)(F)F [Flunixin meglumine],1.1 ± 0.11,1.03 ± 0.037
CC[C@H](c1ccc(O)cc1)[C@@H](CC)c1ccc(O)cc1 [Hexestrol],1.01 ± 0.041,0.982 ± 0.11
Nc1nc(N)c2nc(-c3ccccc3)c(N)nc2n1 [Triamterene],0.9263 ± 0.0054,0.892 ± 0.14
CC(C)(C)NC(=O)[C@H]1CC[C@H]2[C@@H]3CC[C@H]4NC(=O)C=C[C@]4(C)[C@H]3CC[C@]12C [Finasteride],0.899 ± 0.031,0.893 ± 0.026
Cn1nnc2c(C(N)=O)ncn2c1=O [Temozolomide],1.07 ± 0.062,0.85 ± 0.022
CCCCOc1ccc(C(=O)CCN2CCCCC2)cc1 [Dyclonine hydrochloride],1.07 ± 0.092,1.04 ± 0.039
C=C1C(=O)O[C@H]2[C@H]1CC/C(C)=C/CC[C@@]1(C)O[C@@H]21 [Parthenolide],0.199 ± 0.017,0.416 ± 0.11
CC(CN(C)C)CN1c2ccccc2CCc2ccccc21 (stereo not drawn) [Trimipramine maleate salt],1.023 ± 0.01,1.21 ± 0.3
CC(C)NCC(O)COc1cccc2[nH]ccc12 (stereo not drawn) [Pindolol],0.983 ± 0.067,1.02 ± 0.085
OC(CCN1CCCC1)(c1ccccc1)C1CCCCC1 (stereo not drawn) [Procyclidine hydrochloride],0.973 ± 0.037,0.967 ± 0.089
CC(C)C(=O)c1c(C(C)C)nn2ccccc12 [Ibudilast],1.01 ± 0.046,1.04 ± 0.011
Nc1ccc(C(=O)O)c(O)c1 [4-aminosalicylic acid],1.17 ± 0.17,1.01 ± 0.013
O=C1Nc2ccc(Cl)cc2[C@@](C#CC2CC2)(C(F)(F)F)O1 [Efavirenz],1 ± 0.071,1.01 ± 0.032
Clc1ccc(C(c2ccccc2Cl)C(Cl)Cl)cc1 (stereo not drawn) [Mitotane],0.955 ± 0.031,0.997 ± 0.045
O=C1O[C@H]([C@@H](O)CO)C(O)=C1O [Ascorbic acid],1.1 ± 0.028,1.04 ± 0.021
CC[N+](C)(CC)CCC[n+]1c(-c2ccccc2)c2cc(N)ccc2c2ccc(N)cc21 [Propidium iodide],0.892 ± 0.035,0.944 ± 0.043
O=C(O)c1ccccc1Nc1cccc(C(F)(F)F)c1 [Flufenamic acid],1.02 ± 0.029,0.982 ± 0.015
CCC(=O)O[C@]1(C(=O)SCF)[C@H](C)C[C@H]2[C@@H]3C[C@H](F)C4=CC(=O)C=C[C@]4(C)[C@@]3(F)[C@@H](O)C[C@@]21C [Fluticasone propionate],0.876 ± 0.12,0.895 ± 0.034
Nc1ccc(/N=N/c2ccccc2)c(N)n1 [Phenazopyridine hydrochloride],0.978 ± 0.05,0.984 ± 0.079
CN(C)CCOC(=O)C(c1ccccc1)C1(O)CCCC1 (stereo not drawn) [Cyclopentolate hydrochloride],0.935 ± 0.12,1.04 ± 0.018
Nc1nc(/C(=C/CC(=O)O)C(=O)N[C@@H]2C(=O)N3C(C(=O)O)=CCS[C@H]23)cs1 [Ceftibuten],0.923 ± 0.068,0.969 ± 0.074
OCCN1CCN(CC/C=C2/c3ccccc3Sc3ccc(Cl)cc32)CC1 [Zuclopenthixol hydrochloride],0.605 ± 0.014,0.61 ± 0.032
